# Measured values from the supplement of paper PMC12217912.
# This is one part of the list. The full chains were built here from the parent and the listed change. Inactive controls read about 0.05.
# B1: TEV protease; numbered along this chain (parent)
# chain: MGESLFKGPRDYNPISSSICHLTNESDGHTTSLYGIGFGPFIITNKHLFRRNNGTLVVQSLHGVFKVKDTTTLQQHLVDGRDMIIIRMPKDFPPFPQKLKFREPQREERICLVTTNFQTKSMSSMVSDTSCTFPSGDGIFWKHWIQTKDGQCGSPLVSTRDGFIVGIHSASNFTNTNNYFTSVPKNFMELLTNQEAQQWVSGWRLNADSVLWGGHKVFMVKPEEPFQPVKEATQL
# Variants of: B1
# Test: raw area under fraction-flipped curve 0-4 h after induction (AUC4h, not background-subtracted), DNA-recorder readout of cleavage of the substrate (dimensionless); higher = more cleavage of the substrate by the protease variant
# Conditions: temperature: 34 °C; time window: 0-4 h after rhamnose induction
# Experimental: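 In vivo DNA recorder in E. coli TOP10(DE3) ΔrhaA at 34 °C. Each TEVp single-site mutant (parent TEVp 0) is paired with a single-site variant of the 7-mer TEVs (canonical ENLYFQ|S). The substrate sits between flexible linkers in a Bxb1-sfGFP-TEVs-SsrA fusion, so cleavage stabilises Bxb1 and speeds flipping of a recombination array, read by NGS. The value is the raw area under the fraction-flipped curve over 0-4 h after rhamnose induction (AUC4h), with ≥20 reads per time point. It is not background-subtracted; inactive controls average about 0.047.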
# 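Note: Bxb1 expression induced with 0.2% (w/v) L-rhamnose at OD600 near 0.5, cultures sampled hourly, flipped fraction per protease–substrate barcode pair counted by paired-end Illumina sequencing.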
Variant,area with substrate ENLYFAS,area with substrate ENLYFCS,area with substrate ENLYFES,area with substrate ENLYFFS,area with substrate ENLYFGS,area with substrate ENLYFHS,area with substrate ENLYFIS,area with substrate ENLYFKS,area with substrate ENLYFSS,area with substrate ENLYFTS,area with substrate ENLYFVS,area with substrate ENLYFYS,area with substrate ENLYFDS,area with substrate ENLYFMS,area with substrate ENLYFPS,area with substrate ENLYFRS,area with substrate ENLYFWS,area with substrate ENLYFLS,area with substrate ENLYFNS
MGESLFKGPRDYNPISSSICHLTNESDGHTTSLYGIGFGPFIITNKHLFRRNNGTLVVQSLHGVFKVKDTTTLQQHLVDGRDMIIIRMPKDFPPFPQKLKFREPQREERICLVTTNFQTKSMSSMVSDTSCTFPSGDGIFWKHWIQTKDGQCGSPLVSTRDGFIVGIHSASNFTNTNNYFTSVPKNFMELLTNQEAQQWVSGWRLNADSVLWGGHKVPMVKPEEPFQPVKEATQL [F218P],0.0477,0.054,0.0571,0.0679,0.0616,0.0472,0.0601,0.0541,0.0522,0.0679,0.0606,0.0717,,,,,,,
MGESLFKGPRDYNPISSSICHLTNESDGHTTSLYGIGFGPFIITNKHLFRRNNGTLVVQSLHGVFKVKDTTTLQQHLVDGRDMIIIRMPKDFPPFPQKLKFREPQREERICLVTTNFQTKSMSSMVSDTSCTFPSGDGIFWKHWIQTKDGQCGSPLVSTRDGFIVGIHSASNFTNTNNYFTSVPKNFMELLTNQEAQQWVWGWRLNADSVLWGGHKVFMVKPEEPFQPVKEATQL [S201W],0.0564,0.0612,0.0644,0.0592,0.0522,,0.0492,0.0568,,0.0699,0.0401,0.0533,0.0505,0.0637,0.0605,0.0522,0.0498,,
MGESLFKGPRDYNPISSSICHLTNESDGHTTSLYGIGFGPFIITNKHLFRRNNGTLVVQSLHGVFKVKDTTTLQQHLVDGRDMIIIRMPKDFPPFPQKLKFREPQREERICLVTTNFQTKSMSSMVSDTSCTFPSGDGIFWKHWIQTKDGQCGSPLVSTRDGFIVGIHSASNFTNTNNYFTSVPKNFMELLTNQEAQQWVSGWRLNADSVLWGGHKVFMVIPEEPFQPVKEATQL [K221I],0.0595,,0.0366,0.0736,0.0557,0.0336,0.0568,0.0602,0.0765,0.076,0.0557,0.054,0.0791,0.0532,0.0656,,0.0596,0.0571,0.0575
MGESLFKGPRDYNPISSSICHLTNESDGHTTSLYGIGFGPFIITNKHLFRRNNGTLVVQSLHGVFKVKDTTTLQQHLVDGRDMIIIRMPKDFPPFPQKLKFREPQREERICLVTTNFQTKSMSSMVSDTSCTFPSGDGIFWKHWIQTKDGQCGSPLVSTRDGFIVGIHSASNFTNTNNYFTSVPKNFMELLTNQEAQQWVSGWRLNADSVLKGGHKVFMVKPEEPFQPVKEATQL [W212K],0.0455,0.0676,0.0592,0.054,0.0672,,0.0637,0.0606,,0.0503,0.0374,0.051,,0.0436,0.0604,,0.055,0.0523,
MGESLFKGPRDYNPISSSICHLTNESDGHTTSLYGIGFGPFIITNKHLFRRNNGTLVVQSLHGVFKVKDTTTLQQHLVDGRDMIIIRMPKDFPPFPQKLKFREPQREERICLVTTNFQTKSMSSMVSDTSCTFPSGDGIFWKHWIQTKDGQCGSPLVSTRDGFIVGIHSASNFTNTNNYFTSVPKNFMELLTNQEAQQWVSGWRLNADSVLWFGHKVFMVKPEEPFQPVKEATQL [G213F],0.0621,,0.0568,0.0737,,,0.0495,0.0555,0.0517,,0.0509,0.0581,,0.067,0.0628,,0.0498,0.0655,
MGESLFKGPRDYNPISSSICHLTNESDGHTTSLYGIGFGPFIITNKHLFRRNNGTLVVQSLHGVFKVKDTTTLQQHLVDGRDMIIIRMPKDFPPFPQKLKFREPQREERICLVTTNFQTKSMSSMVSDTSCTFPSGDGIFWKHWIQTKDGQCGSPLVSTRDGFIVGIHSASNFTNTNNYFTSVPKNFMELLTNQEAQQHVSGWRLNADSVLWGGHKVFMVKPEEPFQPVKEATQL [W199H],0.0308,0.0589,0.0431,0.0641,,0.0746,0.0607,0.0803,0.0558,0.0571,,0.0594,,0.0437,0.0563,,0.0593,,
MGESLFKGPRDYNPISSSICHLTNESDGHTTSLYGIGFGPFIITNKHLFRRNNGTLVVQSLHGVFKVKDTTTLQQHLVDGRDMIIIRMPKDFPPFPQKLKFREPQREERICLVTTNFQTKSMSSMVSDTSCTFPSGDGIFWKHWIQTKDGQCGSPLVSTRDGFIVGIHSASNFTNTNNYFTSVPKNFMELLTNQEAQQWVSAWRLNADSVLWGGHKVFMVKPEEPFQPVKEATQL [G202A],0.0585,0.0448,0.0769,0.0813,,0.0828,0.0549,0.0714,0.0641,0.0519,,0.0561,,0.035,0.0574,0.0647,0.0655,0.0513,0.06
MGESLFKGPRDYNPISSSICHLTNESDGHTTSLYGIGFGPFIITNKHLFRRNNGTLVVQSLHGVFKVKDTTTLQQHLVDGRDMIIIRMPKDFPPFPQKLKFREPQREERICLVTTNFQTKSMSSMVSDTSCTFPSGDGIFWKHWIQTKDGQCGSPLVSTRDGFIVGIHSASNFTNTNNYFTSVPKNFMELLTNQEAQQWVSGWRLNADSVLWGGHKVFMIKPEEPFQPVKEATQL [V220I],0.0405,0.0536,0.0579,,,,0.0552,,,0.0572,0.0525,,0.0397,0.0723,0.0566,0.0563,0.0559,0.0523,0.0588
MGESLFKGPRDYNPISSSICHLTNESDGHTTSLYGIGFGPFIITNKHLFRRNNGTLVVQSLHGVFKVKDTTTLQQHLVDGRDMIIIRMPKDFPPFPQKLKFREPQREERICLVTTNFQTKSMSSMVSDTSCTFPSGDGIFWKHWIQTKDGQCGSPLVSTRDGFIVGIHSASNFTNTNNYFTSVPKNFMELLTNQEAQQWVSGWTLNADSVLWGGHKVFMVKPEEPFQPVKEATQL [R204T],0.0621,,0.0559,0.08,0.0632,,0.0635,0.0722,,0.058,0.0547,0.0587,0.053,0.0721,0.0847,0.0825,0.0574,0.0567,
